PubChem BioAssay AID1159614 (National Center for Advancing Translational Sciences (NCATS), 2016)
The campaign covered roughly 45,000 compounds. About 65 (0.1%) were called active. Calls follow the shape of the dose curve; as a rule, active = well fitted activation curve with a large enough effect; inconclusive = small, poorly fitted or top-dose-only effect; inactive = no such curve, though single readings can be large or run the other way. The list shows a part of the results.

Each molecule was assayed against Galactocerebrosidase (Homo sapiens) (UniProt P54803) (assay: A Novel Cell-Based Assay to Identify Small Molecules for B -Galactocerebrosidase). Conditions: 145M-Twi-hGALC-G270D cells (Twitcher mouse brain line with human GALC G270D), HMU-beta-Gal fluorescence, 48 h; series mostly up to 57.5 µM; activation: at the top concentration.
Sequence of UniProt P54803 (P54803 whole entry, looked up): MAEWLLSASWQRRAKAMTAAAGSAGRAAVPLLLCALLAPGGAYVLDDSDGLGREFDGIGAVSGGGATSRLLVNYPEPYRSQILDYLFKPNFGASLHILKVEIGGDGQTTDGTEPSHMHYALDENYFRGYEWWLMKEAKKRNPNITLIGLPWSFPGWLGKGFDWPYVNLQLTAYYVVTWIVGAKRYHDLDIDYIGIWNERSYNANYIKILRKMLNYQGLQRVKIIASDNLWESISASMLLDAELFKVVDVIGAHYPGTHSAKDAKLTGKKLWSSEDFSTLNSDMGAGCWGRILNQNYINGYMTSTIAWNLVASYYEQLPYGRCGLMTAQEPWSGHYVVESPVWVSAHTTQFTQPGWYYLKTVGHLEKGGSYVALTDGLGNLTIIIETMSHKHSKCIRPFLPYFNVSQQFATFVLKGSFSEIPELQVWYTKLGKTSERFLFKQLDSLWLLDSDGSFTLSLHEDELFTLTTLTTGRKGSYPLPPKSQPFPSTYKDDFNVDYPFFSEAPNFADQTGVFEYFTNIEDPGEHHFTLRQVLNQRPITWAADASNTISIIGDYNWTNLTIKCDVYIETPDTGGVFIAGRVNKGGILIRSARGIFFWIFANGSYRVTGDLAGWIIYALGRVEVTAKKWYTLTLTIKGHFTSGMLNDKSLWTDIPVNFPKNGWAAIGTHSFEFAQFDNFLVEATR
Procedure, shortened: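 Live 145M-Twi cells (Twitcher mouse brain-derived, GALC-null) stably expressing human GALC-G270D, with a wild-type GALC line, were compound-treated. Residual GALC activity was then read as fluorescence from 0.1 mM final HMU-β-gal at pH 5.2; higher signal means activation.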
Also: 0% is about no effect; nearly all actives have a fitted effect of over 65% in size.

activation, inactive:
COc1ccc(Nc2c3c(nc4ccc(NC(=O)c5cc(Cl)ccc5OC)cc24)CCCC3)cc1OC 0.362%
Cc1cc(C)cc(NC(=O)N2CCC(N3CCN(Cc4ccccc4)C(=O)C3=O)CC2)c1 -6.21%
CCOc1ccc(CC(=O)Nc2c(C(=O)c3ccc(F)cc3)oc3ccc(Cl)cc23)cc1OCC -11.1%
COc1ccc(OC)c(CNC(=O)C2CCN(S(=O)(=O)c3ccc4[nH]c(=O)oc4c3)CC2)c1 -8.02%
CC(C)Oc1ccc(CNC(=O)c2cccc(NC(=O)c3nsc4ccccc34)c2)cc1 -11.2%
COc1ccc(N2Cc3cccc(C(=O)Nc4cccc(F)c4)c3C2=O)cc1 -10.2%
Cc1ccc(CNC(=O)c2c[nH]n3c(=O)c(Cc4ccc(F)cc4Cl)c(C)nc23)cc1 -9.58%
Cc1nnc(N2CCN(c3cccc(C(F)(F)F)c3)CC2)c2c1nnn2Cc1ccccc1 -9.54%
Cn1c(C(=O)N2CCC(C(=O)N3CCN(c4ccccc4)CC3)CC2)cc2sccc21 -9.06%
Cc1noc2ncnc(NCc3ccc(Cl)cc3)c12 -12.2%
Cc1cc(NC(=O)C2CCCN(S(=O)(=O)c3cn(C)cn3)C2)ccc1Br (stereo not given) -7.93%
CN(C)c1ccc(C(=O)Nc2ccc(-c3nc4ccccc4o3)cc2)cc1 -3.55%
Cc1ccc(-c2cc(NC(=O)C(C)Oc3ccccc3F)on2)cc1 (stereo not given) -13.6%
Cc1ccc(CCNC(=O)c2cc3n(n2)CCCN(Cc2ccc(C)cc2)C3=O)cc1 -22.2%
Cc1cccc(Cn2c(COc3ccc(Cl)cc3)nc3ccccc32)c1 -10.9%
CCc1nnc(SCC(=O)Nc2cc(OC)ccc2OC)nc1CC -10.7%
CCN(Cc1ccccc1)C(=O)c1cc2c(=O)[nH]c3ccc(C)cc3c2s1 -35.3%
Cc1ccc(NC(=O)N2CCN(c3ccc(Cl)c(Cl)c3)CC2)cc1 4.19%
CCOc1ccc(S(=O)(=O)N(CC(=O)NCCSc2ccc(C)cc2)c2ccccc2)cc1 -8.53%
Cc1ccc(NC(=O)CSc2nc(=O)n(Cc3ccco3)c3c2CCC3)cc1F 5.39%
Cn1c(=O)c(=O)n(C)c2cc(N3CCCC3)c(NC(=O)c3ccccc3F)cc21 -6.95%
O=C(Nc1sc2c(c1C(=O)Nc1cccc(Cl)c1)CCCC2)c1cccs1 -6.63%
CCn1nc(-c2ccccc2)c(-c2ccccc2)c(C(=O)Nc2nc(C)c(C(C)=O)s2)c1=O 1.31%
CCC(=O)N1CCc2cc(CNC(=O)c3ccc(OC)cc3)ccc21 -8.84%
COc1ccc(-c2nc(CN3CCC(C(=O)NCCc4ccccc4)CC3)c(C)o2)cc1OC -8.4%
CCCCn1cc(S(=O)(=O)c2ccc(C)c(C)c2)c(=O)c2cc(F)c(N(CC)CC)cc21 -7.15%
Cc1ccc(NC(=O)c2cc(S(=O)(=O)NC3CCCCC3)ccc2F)cc1Cl -13.1%
COC(=O)c1ccccc1NC(=O)c1cc(CN2CCCC2)on1 -17.5%
Cc1ccc2c(c1)-c1onc(C(=O)N3CCN(c4cc(Cl)ccc4C)CC3)c1CO2 -8.98%
CCOc1ccc(-c2nnc(SCC(=O)Nc3ccc(C)cc3Cl)o2)cc1 -14.8%
CCC(=O)N1CCc2cc(CNC(=O)Cc3ccc(F)cc3)ccc21 -14.1%
CC1Cc2ccccc2N1S(=O)(=O)c1nnc(NC(=O)c2cccc(F)c2)s1 (stereo not given) -12.1%
CC(=O)c1ccc(N2CCN(S(=O)(=O)c3cc(-c4noc(C)n4)ccc3C)CC2)cc1 -0.913%
Cc1ccc(Cn2c(CNC(=O)Cc3cccc(C)c3)nc3cccnc32)cc1 -7.68%
COc1ccc(CNC(=O)Cn2c(=O)ccc3cc(S(=O)(=O)N4CCCC4)ccc32)cc1 -5.29%
Cc1nn(S(=O)(=O)c2ccc(C(C)(C)C)cc2)c(C)c1S(=O)(=O)N1CCC(C)CC1 -14.7%
Cc1c(C(=O)N2CCC(C)CC2)c(S(=O)(=O)Nc2cccc(C(F)(F)F)c2)c(C)n1C -5.9%
CCOC(=O)c1c(NC(=O)COc2ccc(C)cc2C(C)(C)C)sc2c1CCC(C)C2 (stereo not given) -4.04%
COc1ccc(OC)c(CCNC(=O)c2cnn(-c3ccc(C)cc3C)c2C2CCN(C(=O)OC(C)(C)C)CC2)c1 -8.48%
CC(C)N(Cc1ccccc1)C(=O)C1CCCN(c2ncnc3onc(-c4ccc(F)cc4)c23)C1 (stereo not given) -9.78%
COCC(=O)Nc1cccc(-c2nc3cccnc3s2)c1 0.828%
COc1ccccc1CNC(=O)c1cnc(SC)nc1C -7.05%
COc1ccc2[nH]cc(CCNC(=O)c3cnn(-c4ccc(C)cc4)c3C3CCN(C(=O)OC(C)(C)C)CC3)c2c1 -17.7%
CC(=O)Nc1ccc(NC(=O)C2(c3cccs3)CCOCC2)cc1 6.1%
COCCN1C(=O)c2oc3ccc(C)cc3c(=O)c2C12C(=O)N(C)c1ccccc12 (stereo not given) -4.58%
O=C(Nc1cc(-c2nc3cc(Cl)ccc3o2)ccc1Cl)c1cc([N+](=O)[O-])ccc1N1CCOCC1 2.7%
Cc1cc2n(n1)CCC(=O)N2Cc1ccc(C(=O)Nc2ccc(F)cc2F)cc1 -1.24%
CCOC(=O)c1ccc(NC(=O)CC2Nc3ccccc3NC2=O)cc1 (stereo not given) -6.5%
CCOC(=O)c1ccc(N2C(=O)c3[nH]nc(-c4ccc(OCC)cc4)c3C2c2cccs2)cc1 (stereo not given) 0.901%
Cc1cc(-c2ccc(S(=O)(=O)N3CCN(c4ccc(Cl)cc4)CC3)s2)on1 -8.14%
COc1ccc(-c2nc3scc(CCNC(=O)c4cccc(Br)c4)n3n2)cc1 -13.9%
COc1ccc(NC(=O)c2sc3nc4c(c(-c5ccc(OC)cc5)c3c2N)C(=O)CC(C)(C)C4)cc1 -6.82%
O=C(c1ccccc1Cl)N1CCCCC1CCN1CCOCC1 (stereo not given) -2.79%
CCOc1cccc2c1Oc1nc(-c3ccccc3)nc(SCC(=O)Nc3ccc(F)cc3)c1C2 -16%
Cc1ccc(-c2nnc(Nc3ccc(F)cc3)c3ccccc23)cc1S(=O)(=O)N1CCN(C)CC1 -17.6%
Cc1ccc(CNCc2cccn2-c2nnc(N3CCCC3)s2)cc1 -18.7%
CCC(C(=O)NC1CCC(C)CC1)n1nc(C)c2sc3ccccc3c2c1=O (stereo not given) -4.97%
CC(C)c1ccc(NC(=O)CSc2nc3ccccc3nc2Cc2ccccc2)cc1 -11.5%
COc1ccccc1CNC(=O)C1CCN(S(=O)(=O)c2ccc3c(c2)CCCN3C(C)=O)CC1 -18.9%
COc1cccc(N2CCN(C(=O)CCCCCn3c(=O)[nH]c4ccccc4c3=O)CC2)c1 -8.95%
